# Results reported in PubChem BioAssay AID1508623 (National Center for Advancing Translational Sciences (NCATS), 2021).
# In all, about 48,000 compounds went through this assay and about 450 (0.94%) were called active. Not shown: some 19% with an inconclusive outcome. Calls come from the whole dose curve; as a rule, active = well fitted inhibition curve with a large enough effect; inconclusive = small, poorly fitted or top-dose-only effect; inactive = no such curve, though single readings can be large or run the other way. Some of the results follow.
# Assay: Primary qHTS for Identification of Small Molecule Inhibitors of Huntingtin Promoter Activity; note: nearly all actives have a fitted effect of over 50% in size
# Conditions: HEK293 HTT promoter firefly luciferase reporter (activity 0% = vehicle and -100% = no light), 24 h; series mostly up to 57.5 µM; activity change, negative = inhibition: at the top concentration
# Procedure, shortened: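 HEK293 cells carrying firefly luciferase reporters were seeded at 2,500 per well in Opti-MEM and cultured for 24 h. They were then treated with compounds at up to 57.5 uM final for 24 h at 37 degrees C before Dual-Glo luminescence readout.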
row,Compound,"activity change, negative = inhibition"
1,COc1ccc(-c2c(C)c3ccc(O)c(CN4CCCC4)c3oc2=O)cc1,inactive: 3.98%
2,COc1cccc(CNCCSc2nnnn2-c2ccccc2)c1OC,inactive: -13.6%
3,COc1ccc(-c2cc(C(F)(F)F)n3nc(C(=O)Nc4cc(C)ccc4C)cc3n2)cc1,inactive: -17.4% [at 11.5 µM]
4,Cc1ccc2c(c1)c1c3n2CCN(C(=O)c2ccc(C(F)(F)F)cc2)C3CCC1 (stereo not drawn),inactive: -6.56%
5,CCOC(=O)c1sc2ccccc2c1S(=O)(=O)N1CCN(c2cc(C)ccc2C)CC1,inactive: 0%
6,COc1ccc(CCNC(=O)c2cc3c(=O)oc4ccc(C)cc4c3s2)cc1OC,inactive: -6.29%
7,CCNC(=O)c1cc2n(n1)CCCN(Cc1ccc(C)cc1)C2=O,inactive: -14.3%
8,COc1ccc(OCC(=O)Nc2ccc3nn(-c4ccc(OC)cc4)nc3c2)cc1,inactive: -7.41%
9,O=C(C1CCN(c2ncnc3c2nc2n3CCCCC2)CC1)N1CCN(c2ccc(Cl)cc2)CC1,inactive: -9.69%
10,Cc1nn(C(=O)c2cccc(F)c2)c(C)c1S(=O)(=O)N1CCOCC1,inactive: -15.7%
11,COc1ccc(Nc2cc(C(=O)NC3CCCC3)c3ccccc3n2)cc1,inactive: -5.64%
12,COc1ccccc1CNc1nc2c(S(=O)(=O)c3ccccc3)nnn2c2ccc(Cl)cc12,inactive: 11.2%
13,Cc1ccc(NC(=O)c2c(NC(=O)c3ccccc3Cl)sc3c2CCC3)cc1,inactive: -18.1%
14,O=C(CSc1nccn1Cc1ccc(F)cc1)NCc1ccc(F)cc1,inactive: -16.4%
15,CN1CCN(C(=O)Cn2ncc3c4ccccc4n(Cc4ccc(Cl)cc4)c3c2=O)CC1,inactive: -16.7%
16,CS(=O)(=O)N1CCc2cc(C(=O)N3CCN(c4ccccc4F)CC3)ccc21,inactive: -24.6%
17,O=C1Cc2cc(Cl)ccc2N1,inactive: 2.26%
18,Cc1ccccc1NC(=O)Cn1nnc(C(=O)NCCc2ccccc2)c1N,inactive: -2.57%
19,CCc1nn2c(=O)c(S(=O)(=O)Nc3ccc(Br)cc3F)c(C)nc2s1,inactive: -27.5%
20,CC(=O)c1cccc(NC(=O)Cn2nc(C(F)(F)F)c3c2CCC3)c1,inactive: -22.8%
21,CSc1nc(=O)c2c(n1C)NC(=O)CC2c1cc(F)cc(F)c1 (stereo not drawn),inactive: -11.4%
22,Cc1ccc2nc(Cl)c3cc(C(=O)NCCCN(C)Cc4ccccc4)sc3c2c1,inactive: -12%
23,COc1ccc(C2C(C(=O)Nc3ccc(C)cc3C)=C(C)Nc3nc(SCc4cccc(C)c4)nn32)c(OC)c1 (stereo not drawn),inactive: -2.74%
24,COc1ccccc1-c1nn2c(=O)cc(CN3CCN(C(=O)/C=C/c4ccccc4)CC3)nc2s1,inactive: -22.5%

row,Compound,"activity change, negative = inhibition"
1,CN(C)c1ccc(Nc2nc3ccccc3n3nnnc23)cc1,inactive: -19.9%
2,COc1ccc(N2CCN(S(=O)(=O)c3ccc(-c4cnc(C5CC5)o4)cc3)CC2)cc1,inactive: -25.5%
3,CC1=C(C(=O)Nc2ccc(C)cc2C)C(c2ccc(Br)cc2)n2ncc(C(=O)Nc3cccc(C)c3)c2N1 (stereo not drawn),inactive: -12.3%
4,COc1ccccc1CNC(=O)CSc1nc(=O)[nH]c2c1CCC2,inactive: -11.1%
5,CCc1ccc(S(=O)(=O)NCc2nc3cccnc3n2Cc2cccc(OC)c2)cc1,inactive: -8.21%
6,CCCCCn1c(CNC(=O)c2ccccc2)nc2ccccc21,inactive: -8.16%
7,CCN(CC)c1ccc(-n2nc3cc(C)c(NC(=O)c4ccccc4C)cc3n2)c(C)c1,inactive: -32.7%
8,Cc1c(Cl)cccc1Nc1nn2c(=O)c3ccc(C(=O)NCCC4=CCCCC4)cc3nc2s1,inactive: -26.3%
9,Cc1cc(C)c(S(=O)(=O)N2CCN(Cc3ccc4c(c3)OCO4)CC2)cc1C,inactive: -20%
10,CCOC(=O)C1=C[C@]2(CC)CCCN3CCc4c(n1c1ccccc41)[C@@H]32,inactive
11,Cc1ccc(-n2c(=O)c3c(C)c(C)sc3n(Cc3ccc(F)cc3Cl)c2=O)cc1C,inactive: -10.3%
12,COc1ccc(CCNC(=O)Cc2c(C)c3cc4c(C)coc4cc3oc2=O)cc1OC,inactive: -1.05%
13,Oc1ccc(-c2nc3ccc(Cl)cn3c2Nc2ccc3c(c2)OCO3)cc1,inactive: 12.7%
14,Cc1cc(C)c(NS(=O)(=O)c2ccc(-c3coc(C)n3)cc2)c(C)c1,inactive: -25.9%
15,COc1cc(C(=O)NCc2nc3cccnc3n2Cc2ccc(C)cc2)cc(OC)c1OC,inactive: -1.8%
16,CC(=O)c1ccc(NC(=O)Cn2ncc3c4ccccc4n(Cc4ccccc4)c3c2=O)cc1,inactive: -15.3%
17,O=C(NCc1ccc(Cl)cc1)C1CCN(S(=O)(=O)c2ccccc2)CC1,inactive: -36.4%
18,COc1ccc(N(C(=O)c2ccccc2)S(=O)(=O)c2ccc3c(c2)n(C)c(=O)n3C)cc1,inactive: -7.01%
19,O=C1CC(=O)Nc2cc(S(=O)(=O)N3CCOc4ccc(Cl)cc43)ccc2N1,inactive: -28.8%
20,O=C(c1ccc2c(c1)N(Cc1cccc(Cl)c1)C(=O)c1ccccc1S2=O)N1CCN(c2cccc(C(F)(F)F)c2)CC1 (stereo not drawn),inactive: -42.8%
21,Cc1ccc(N(C)C(=O)CN2C(=O)CCc3cc(S(=O)(=O)N4CCOCC4)ccc32)cc1,inactive: -15.7%
22,COc1ccccc1CNC(=O)CCn1cnc2ccccc2c1=O,inactive: -5.51%
23,O=C(NC1CC(=O)N(c2ccc(F)cc2)C1)c1ccc2c(c1)OCO2 (stereo not drawn),inactive: 6.49%
24,CCN1CCN(C(c2ccccc2Cl)c2c(O)cc(C)n(Cc3ccco3)c2=O)CC1 (stereo not drawn),inactive: 0.573%
